In all, about 18,000 sequences were measured (“TetR repression strength (sort-seq, GFP reporter)”: median about 0.23, highest 2% from about 0.68 on). This is one part of the list.
What follows are sequences tested against TetR (class B, Tn10) (UniProt P04483) (assay: TetR repression strength (sort-seq, GFP reporter) (relative to tetO2 = 1); higher = stronger repression). Settings: E. coli.
Summary of the method: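 Three independent transformations of E. coli SIG10-MAX were made with a low-copy plasmid library randomizing eight operator positions between a constitutive promoter and sfGFP, with constitutive TetR. Following 5 h at 37 °C in LB plus 50 µg/mL chloramphenicol, 10^6 cells went through FACS into 13 fluorescence bins, and each bin was sequenced by Illumina. Repression strength was defined as the top bin index plus one minus the read-weighted mean bin, divided by the unaltered operator's value. Averages included only members reaching ≥30 reads in all replicates with a CV ≤0.5.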

Chain of UniProt P04483 (P04483 whole entry): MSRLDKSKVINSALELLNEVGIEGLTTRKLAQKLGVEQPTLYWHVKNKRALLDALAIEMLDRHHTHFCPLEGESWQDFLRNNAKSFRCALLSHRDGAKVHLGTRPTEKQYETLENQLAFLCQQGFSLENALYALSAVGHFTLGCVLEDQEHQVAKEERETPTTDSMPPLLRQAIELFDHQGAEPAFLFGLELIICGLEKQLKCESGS

Sequence	TetR repression strength
TCCCGAAGAGTACCGGAGA	0.00527
TCCCGCGTAGTGTGCGAGA	0.487
TCCCGATCAGTGTTCGAGA	0.548
TCCCGTTGAGTCATGGAGA	0.178
TCCCGAAAAGTGTTCGAGA	0.247
TCCCTCATAGTAATGGAGA	0.248
TCCCATTCAGTACGTGAGA	0.246
TCCCTTTTAGTCGAGGAGA	0.346
TCCCGAGGAGTCTGCGAGA	0.12
TCCCAACCAGTAGATGAGA	0.014
TCCCTCGCAGTAGGAGAGA	0.288
TCCCTCCAAGTAACTGAGA	0.39
TCCCTCAAAGTTGTCGAGA	0.26
TCCCCTCAAGTCCCTGAGA	0.227
TCCCGGCTAGTCGGAGAGA	0.196
TCCCGATGAGTGTGCGAGA	0.143
TCCCACGAAGTGAAGGAGA	0.0957
TCCCAGGTAGTTGATGAGA	0.177
TCCCTCGAAGTCTCGGAGA	0.228
TCCCGAGGAGTTGCCGAGA	0.154
TCCCATGCAGTTAGCGAGA	0.104
TCCCAGGAAGTCACAGAGA	0.187
TCCCTTAAAGTAGGCGAGA	0.0673
TCCCGATTAGTGCATGAGA	0.178
TCCCCTATAGTGTGGGAGA	0.144
TCCCGATTAGTGAGGGAGA	0.309

Sequence	TetR repression strength
TCCCTTCTAGTATCGGAGA	0.317
TCCCCTTGAGTGGTTGAGA	0.286
TCCCTATCAGTTCGTGAGA	0.423
TCCCCACAAGTACAGGAGA	0.0968
TCCCAGCCAGTGCCTGAGA	0.328
TCCCCGGAAGTGAAGGAGA	0.296
TCCCTAGCAGTTGGTGAGA	0.408
TCCCCTGGAGTCCTGGAGA	0.439
TCCCTGGGAGTGCGCGAGA	0.124
TCCCTGCGAGTACAAGAGA	0.325
TCCCGGTAAGTTAGGGAGA	0.14
TCCCGATGAGTGTAGGAGA	0.224
TCCCGGACAGTGGAAGAGA	0.0571
TCCCAACAAGTTTGGGAGA	0.136
TCCCTCTGAGTTAGCGAGA	0.372
TCCCGAGGAGTGGTCGAGA	0.189
TCCCCAAGAGTGCGGGAGA	0.0296
TCCCTTACAGTGTGCGAGA	0.251
TCCCGTTTAGTGACGGAGA	0.166
TCCCTGGAAGTAGCAGAGA	0.0782
TCCCGTCAAGTCGCAGAGA	0.244
TCCCTATGAGTTTGAGAGA	0.33
TCCCTGGAAGTGGACGAGA	0.298
TCCCGACAAGTGGTCGAGA	0.162
TCCCGTTTAGTAGTCGAGA	0.0473
TCCCACGCAGTGCGCGAGA	0.203

Sequence	TetR repression strength
TCCCCGCTAGTTCGCGAGA	0.476
TCCCGGGCAGTACCTGAGA	0.388
TCCCATGCAGTGCCGGAGA	0.184
TCCCAGGAAGTCGCTGAGA	0.0904
TCCCACCTAGTGACGGAGA	0.131
TCCCTCTTAGTTTCAGAGA	0.485
TCCCCCAGAGTAAGGGAGA	0.178
TCCCCTCGAGTTCAGGAGA	0.208
TCCCCCGGAGTCGCAGAGA	0.224
TCCCGTGGAGTGGTAGAGA	0.203
TCCCGTGAAGTCGGAGAGA	0.285
TCCCTCCGAGTCCGCGAGA	0.512
TCCCCGTGAGTCCAAGAGA	0.401
TCCCGCACAGTGCGAGAGA	0.19
TCCCGCAGAGTCTAAGAGA	0.265
TCCCCGGGAGTCTTGGAGA	0.188
TCCCGTGTAGTGTGCGAGA	0.128
TCCCAGCGAGTACTGGAGA	0.382
TCCCGTCAAGTACGCGAGA	0.196
TCCCAGATAGTGAGAGAGA	0.238
TCCCTACTAGTAACAGAGA	0.303
TCCCTAGAAGTTCTAGAGA	0.518
TCCCTCGCAGTTGGGGAGA	0.228
TCCCGCAAAGTTCTGGAGA	0.174
TCCCAACGAGTCAACGAGA	0.366
TCCCGAACAGTAGTCGAGA	0.121

Sequence	TetR repression strength
TCCCCTTGAGTGCCCGAGA	0.569
TCCCGTATAGTCGGGGAGA	0.216
TCCCCGTAAGTTTTAGAGA	0.346
TCCCCAAGAGTGTCAGAGA	0.37
TCCCGGTAAGTTCGTGAGA	0.214
TCCCGTGTAGTAACTGAGA	0.0296
TCCCATCTAGTTTGCGAGA	0.297
TCCCGGTGAGTGGGCGAGA	0.15
TCCCATTGAGTCAAGGAGA	0.592
TCCCATCGAGTATGCGAGA	0.264
TCCCGCTTAGTCCGAGAGA	0.195
TCCCTGACAGTCAGCGAGA	0.136
TCCCGTGGAGTCGCCGAGA	0.14
TCCCGGGCAGTAGTGGAGA	0.419
TCCCGCGTAGTGTCAGAGA	0.233
TCCCTAGAAGTGACGGAGA	0.153
TCCCGCGAAGTGTATGAGA	0.222
TCCCTTTGAGTTTTAGAGA	0.2
TCCCGGCCAGTAGGTGAGA	0.229
TCCCCCGCAGTGCTCGAGA	0.331
TCCCGCCGAGTCATAGAGA	0.275
TCCCCTTGAGTAATAGAGA	0.253
TCCCCGTTAGTGTGCGAGA	0.0902
TCCCGAACAGTTGGCGAGA	0.27
TCCCAATAAGTGCTAGAGA	0.629
TCCCCGTCAGTCAGTGAGA	0.421

Sequence	TetR repression strength
TCCCAGTGAGTAAAAGAGA	0.222
TCCCTGTTAGTGTAAGAGA	0.0382
TCCCTAGCAGTAGCTGAGA	0.174
TCCCATATAGTGCGTGAGA	0.291
TCCCGGGCAGTAAATGAGA	0.431
TCCCGGATAGTAGTTGAGA	0.346
TCCCGACGAGTAACTGAGA	0.467
TCCCTCGAAGTGGGAGAGA	0.135
TCCCTTCTAGTCCGTGAGA	0.468
TCCCGATAAGTTGTGGAGA	0.161
TCCCTTGGAGTTCTTGAGA	0.179
TCCCTTTAAGTGGAGGAGA	0.247
TCCCGAGAAGTCCTGGAGA	0.263
TCCCTGACAGTTTGAGAGA	0.251
TCCCTGAGAGTTTGTGAGA	0.198
TCCCACTAAGTTGCTGAGA	0.0327
TCCCGAGGAGTACAAGAGA	0.444
TCCCGCTGAGTTTCAGAGA	0.204
TCCCCTGTAGTGGAAGAGA	0.0556
TCCCATGGAGTAAGAGAGA	0.0851
TCCCCTAGAGTCCTGGAGA	0.952
TCCCCCTCAGTTTCTGAGA	0.239
TCCCGCTAAGTCGGTGAGA	0.207
TCCCCCATAGTAGGAGAGA	0.171
TCCCTTAGAGTTAACGAGA	0.275
TCCCTTCAAGTTTGAGAGA	0.185
